In the RNAGym collection of RNA variant scans (doi:10.1093/nar/gkz1192):
Read counts are not given, so values of variants with three or more changes are uncertain.

B1: CPEB3 Ribozyme (parent)
chain: UAACAGGGGGCCACAGCAGAAGCGUUCACGUCGCAGCCCCUGUCAGAUUCUGGUGAAUCUGCGAAUUCUGCUGUAUAUCUC

Variants of: B1
Test: self-cleavage, relative activity (ratio to wild type); higher = more cleavage; in vitro, sequencing
How it was run: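 Barcoded CPEB3 ribozyme mutants, produced by rounds of error-prone PCR, self-cleaved while being transcribed with T7 RNA polymerase for 5 hours at 37°C and during a subsequent 15 min DNase I step before EDTA was added. Sequencing of template-switched cDNA on Illumina gave cleaved and total reads, and DNA sequencing assigned barcodes to variants. Each variant's relative activity is its cleaved/total read fraction divided by the unmutated ribozyme's fraction, averaged across three batches. A variant needed a minimum of 5 reads.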

| Variant | self-cleavage |
| --- | --- |
| C12A A15G A28U C32A | 0.09 |
| C12A A15G C32A | 0.31 |
| C12A A15G C32A A35U A77G | 0.34 |
| C12A A15G U69A | 0.4 |
| C12A A15U A18U A21C C27G A47G | 0.04 |
| C12A A15U A21G A45U U72C | 0.23 |
| C12A A15U A21G U72C U78C | 0.52 |
| C12A A15U A35U U51A C62U U80C | 0.34 |
| C12A A15U G30C U51A G52C | 0.07 |
| C12A A15U U43C U72C | 0.87 |
| C12A A18C A35G U66C | 0.13 |
| C12A A18G A21G | 0.57 |
| C12A A18G A28U A45U U58G | 0.23 |
| C12A A18G A56G | 0.48 |
| C12A A18U A45U U72C U80C | 0.47 |
| C12A A18U U25C | 0.13 |
| C12A A18U U43A U69A U80C | 1.22 |
| C12A A18U U54C U58A | 0.15 |
| C12A A21G C40U A47U U49C | 0.18 |
| C12A A21G G42U | 0.24 |
| C12A A21G U31C G33A C59U U80A | 0.21 |
| C12A A21G U43A U54A A65U U80A | 0.23 |
| C12A A21U U26A C29G U58A U69A | 0.05 |
| C12A A28G A45G U48C C62U U69C U76A | 0.08 |

| Variant | self-cleavage |
| --- | --- |
| C12A A28G A64G U67A | 0.12 |
| C12A A28G C34U | 0.38 |
| C12A A28G U54A U66A | 0.41 |
| C12A A28G U66A U74C | 0.42 |
| C12A A28U A57G U67C | 0.16 |
| C12A A28U C39A U60A A75U | 0.18 |
| C12A A28U U41C | 0.67 |
| C12A A35G G55A U60C U80G | 0.08 |
| C12A A35G U41A A47C U80C | 0.11 |
| C12A A35G U41G U54A U76A | 0.32 |
| C12A A35G U72C | 1.24 |
| C12A A35G U76C | 0.7 |
| C12A A35U U48G | 0.77 |
| C12A A45G G70A | 0.27 |
| C12A A45G U48C C62U A64G U69C U76A | 0.18 |
| C12A A45U A47G U72C U80A | 0.28 |
| C12A A45U A47G U80A | 0.44 |
| C12A A47G U48C | 0.21 |
| C12A A56U U58A U69C | 0.14 |
| C12A A57G U78C | 0.71 |
| C12A C14U A15U U72C | 1.11 |
| C12A C27G A47C | 0.1 |
| C12A C32U U54C | 0.09 |
| C12A C34A U60C U78C | 0.08 |

| Variant | self-cleavage |
| --- | --- |
| C12A C37G A56G U67C U72A | 0.05 |
| C12A C40A U58C | 0.45 |
| C12A C44A U72A | 0.19 |
| C12A G19U A28U A64U U67A U69G A75G | 0.04 |
| C12A G33A A56U U69C | 0.07 |
| C12A U25C A28U G33A A35G A57C U72A | 0.11 |
| C12A U25C A35U U80A | 0.38 |
| C12A U25C A45U U51A | 0.09 |
| C12A U25C A47C A64G U72C U78A | 0.1 |
| C12A U25C C29U A45U A65C A77U | 0.07 |
| C12A U25C U26C U48C A57G C59U | 0.21 |
| C12A U25C U41C U76C A77G | 0.12 |
| C12A U25C U48A U58C U78C | 0.06 |
| C12A U25C U51A | 0.56 |
| C12A U25C U58A U74C | 0.13 |
| C12A U25C U60A U69C | 0.3 |
| C12A U26A A28U U80A | 0.39 |
| C12A U26A G33A U54A U72A A77C | 0.1 |
| C12A U26C A28U U51C U67C A77U | 0.06 |
| C12A U26C U41A A45G U54C U60C U67C | 0.16 |
| C12A U26C U54C A56U | 0.16 |
| C12A U26C U67C U69A | 0.06 |
| C12A U31A C62A U72C | 0.17 |
| C12A U31A U43C | 0.25 |

| Variant | self-cleavage |
| --- | --- |
| C12A U31A U67G U78C | 0.14 |
| C12A U31C U41C U54C | 0.52 |
| C12A U31C U58C A64G A65U U69C U80C | 0.26 |
| C12A U41A U54C C59G U74C | 0.1 |
| C12A U41C U54G | 0.91 |
| C12A U43A U54G A65G | 0.29 |
| C12A U43C U72C U78C | 0.77 |
| C12A U48C C62U C68A U69C U76A | 0.28 |
| C12A U49C A56G | 1.18 |
| C12A U51A G52A A65C | 0.26 |
| C12A U54A A64U U67A U69G | 0.44 |
| C12A U54C A56G U76C | 1.14 |
| C12A U54C U60G A65C | 0.14 |
| C12A U76C A77G | 1.05 |
| C12G A13G A28C A45G U74C | 0.08 |
| C12G A13G A28G A35U A45U U80G | 0.03 |
| C12G A13G A45U G55A U69A | 0.12 |
| C12G A13G A45U U69A | 0.24 |
| C12G A13G C23G A56G U58C U74C U80C | 0.07 |
| C12G A13G U26C U31C | 0.59 |
| C12G A13G U51A A56U U69A A77U | 0.15 |
| C12G A13U A15U U49C | 0.08 |
| C12G A13U A20G U43C | 0.2 |
| C12G A13U G36U A75G | 0.2 |

| Variant | self-cleavage |
| --- | --- |
| C12G A13U U25C C38A C40A | 0.3 |
| C12G A13U U25C C40A U49C A56U U78G | 0.05 |
| C12G A15G U26A C32G U69A A75G | 0.1 |
| C12G A15U A45U | 0.21 |
| C12G A18G A28G A56G A64U U72A U78A | 0.12 |
| C12G A18G C40A | 0.15 |
| C12G A18G U25C G33A A56G U72A | 0.09 |
| C12G A18U A45G U49A U69C U72G U76C | 0.05 |
| C12G A18U U26A A45U A64C U76C | 0.05 |
| C12G A18U U31C | 0.22 |
| C12G A20G A35G A45G A65U U74C | 0.14 |
| C12G A20G A56U U67A U78C | 0.1 |
| C12G A20G C40A A64U | 0.05 |
| C12G A20G U25C C32A U41A U60C A65U | 0.1 |
| C12G A20G U41C A45U U49A U72C | 0.17 |
| C12G A20G U51C U69A U74A | 0.05 |
| C12G A21G C34G C40A U69A | 0.04 |
| C12G A21G U54A | 0.23 |
| C12G A21U C40A U60A C79A | 0.04 |
| C12G A35G A65G | 0.28 |
| C12G A35G U58C | 0.14 |
| C12G A35U U51C A56G | 0.18 |
| C12G A45U U49A U80A | 0.21 |
| C12G A45U U51C U69C | 0.19 |

| Variant | self-cleavage |
| --- | --- |
| C12G A47G A64U U72C | 0.16 |
| C12G C29G A75G | 0.06 |
| C12G C29U A35U U48A U69C U74A U78C | 0.05 |
| C12G C29U U41C U48C U49C U67C | 0.03 |
| C12G C38U U49C U80C | 0.05 |
| C12G C38U U60A U72C | 0.12 |
| C12G C38U U72C | 0.33 |
| C12G C39A A45U G52U U69C | 0.04 |
| C12G C40A U54C A56G | 0.1 |
| C12G C40G A64G | 0.07 |
| C12G C44A U58C U60C U69C U80C | 0.09 |
| C12G C44G A57G | 0.07 |
| C12G G16C A45G U49C U72A U76A A77U | 0.06 |
| C12G G19A C29A U31G U51C A77G U80C | 0.03 |
| C12G G24A U43A A65G | 0.06 |
| C12G G24A U74A | 0.06 |
| C12G G24U U25C U31C A56G | 0.14 |
| C12G G33A A35G A47G | 0.17 |
| C12G G53A A77U | 1.08 |
| C12G G55U A64G | 0.19 |
| C12G U25A U43C U69A | 0.04 |
| C12G U25C A35G A65U | 0.07 |
| C12G U25G U80C | 0.4 |
| C12G U26A U51G | 0.24 |

| Variant | self-cleavage |
| --- | --- |
| C12G U26C U54C A56G U69A | 0.07 |
| C12G U31C C37G U60A U66C U78A | 0.03 |
| C12G U31C U43A U51A U72A C81A | 0.12 |
| C12G U43C U48C C59A C71G U76C | 0.03 |
| C12G U43C U54G | 0.24 |
| C12G U51C A77U | 0.62 |
| C12G U54A U80C | 0.64 |
| C12G U54C A56G A64U U78C | 0.07 |
| C12G U54C U72A | 0.07 |
| C12G U58C U66C | 0.18 |
| C12G U78C U80C | 0.38 |
| C12U A13C A18G U26A | 0.93 |
| C12U A13C U25C U51C A64U U67C | 0.04 |
| C12U A13G A20G U25C U31A | 0.03 |
| C12U A13G A21G U72C | 0.21 |
| C12U A13G A28G U31C | 0.24 |
| C12U A13G A64G | 0.58 |
| C12U A13G C14A U25C A65U U80C | 0.25 |
| C12U A13G C27G C62G U74C | 0.22 |
| C12U A13G C27G U31C C62G A65G U74C | 0 |
| C12U A13G U25C A35U U69C U78C | 0.07 |
| C12U A13G U25C A57C U60C U69A U72A | 0.04 |
| C12U A13G U25C C62U A65U | 0.13 |
